# Results: the supplement of paper PMC12217912
# The other results are listed elsewhere or left out. The full chains were built here from the parent and the listed change. Values near 0.05 are background.
# B1: TEV protease; numbered along this chain (parent)
# chain: MGESLFKGPRDYNPISSSICHLTNESDGHTTSLYGIGFGPFIITNKHLFRRNNGTLVVQSLHGVFKVKDTTTLQQHLVDGRDMIIIRMPKDFPPFPQKLKFREPQREERICLVTTNFQTKSMSSMVSDTSCTFPSGDGIFWKHWIQTKDGQCGSPLVSTRDGFIVGIHSASNFTNTNNYFTSVPKNFMELLTNQEAQQWVSGWRLNADSVLWGGHKVFMVKPEEPFQPVKEATQL
# Variants of: B1
# Experiment: raw area under fraction-flipped curve 0-4 h after induction (AUC4h, not background-subtracted), DNA-recorder readout of cleavage of the substrate (dimensionless); higher = more cleavage of the substrate by the protease variant
# Settings: temperature: 34 °C; time window: 0-4 h after rhamnose induction
# 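Also: Bxb1 expression induced with 0.2% (w/v) L-rhamnose at OD600 near 0.5, cultures sampled hourly, flipped fraction per protease–substrate barcode pair counted by paired-end Illumina sequencing.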
Variant,area with substrate EDLYFQS,area with substrate EELYFQS,area with substrate EFLYFQS,area with substrate EGLYFQS,area with substrate EHLYFQS,area with substrate EILYFQS,area with substrate ELLYFQS,area with substrate EMLYFQS,area with substrate EQLYFQS,area with substrate ESLYFQS,area with substrate EVLYFQS,area with substrate EYLYFQS,area with substrate EKLYFQS,area with substrate EPLYFQS,area with substrate EWLYFQS,area with substrate ERLYFQS,area with substrate ETLYFQS
MGESLFKGPRDYNPISSSICHLTNESDGHTTSLYGIGFGPFIITNKHLFRRNNGTLVVQSLHGVFKVKDTTTLQQHLVDGRDMIIIRMPKDFPPFPQKLKFREPQREERICLVTTNFQTKSMSTMVSDTSCTFPSGDGIFWKHWIQTKDGQCGSPLVSTRDGFIVGIHSASNFTNTNNYFTSVPKNFMELLTNQEAQQWVSGWRLNADSVLWGGHKVFMVKPEEPFQPVKEATQL [S124T],0.117,0.12,0.0976,0.0954,0.0864,0.0732,0.0856,0.0953,0.0945,0.118,0.111,0.123,–,–,–,–,–
MGESLFKGPRDYNPISSSICHLTNESDGHTTSLYGIGFGPFIITNKHLFRRNNGTLVVQSLHGVFKVKDTTTLQQHLVDGRDMIIIRMPKDFPPFPQKLKFREPQREERICLVTTNFQTKSMSIMVSDTSCTFPSGDGIFWKHWIQTKDGQCGSPLVSTRDGFIVGIHSASNFTNTNNYFTSVPKNFMELLTNQEAQQWVSGWRLNADSVLWGGHKVFMVKPEEPFQPVKEATQL [S124I],0.113,0.102,0.0842,0.0027,0.132,–,0.0797,0.102,–,0.103,0.0679,–,0.107,0.1,0.105,–,–
MGESLFKGPRDYNPISSSICHLTNESDGHTTSLYGIGFGPFIITNKHLFRRNNGTLVVQSLHGVFKVKDTTTLQQHLVDGRDMIIIRMPKDFPPFPQKLKFREPQREERICLVTTNFQTKSMSSMVSDTSCTFPSGDGIFWKHWIQTKDGQCGSVLVSTRDGFIVGIHSASNFTNTNNYFTSVPKNFMELLTNQEAQQWVSGWRLNADSVLWGGHKVFMVKPEEPFQPVKEATQL [P155V],0.0954,0.129,–,0.0534,0.0959,–,–,–,0.118,0.0921,0.0741,–,–,–,0.0923,0.048,–
MGESLFKGPRDYNPISSSICHLTNESDGHTTSLYGIGFGPFIITNKHLFRRNNGTLVVQRLHGVFKVKDTTTLQQHLVDGRDMIIIRMPKDFPPFPQKLKFREPQREERICLVTTNFQTKSMSSMVSDTSCTFPSGDGIFWKHWIQTKDGQCGSPLVSTRDGFIVGIHSASNFTNTNNYFTSVPKNFMELLTNQEAQQWVSGWRLNADSVLWGGHKVFMVKPEEPFQPVKEATQL [S60R],0.116,0.103,0.138,0.0902,–,–,0.0653,0.0901,0.107,0.0898,0.0964,–,–,0.109,–,0.0748,–
MGESLFKGPRDYNPISSSICHLTNESDGHTTSLYGIGFGPFIITNKHLFRRNNGTLVVQSLHGVFKVKDTTTLQQHLVDGRDMIIIRMPKDFPPFPQKLKFREPQRHERICLVTTNFQTKSMSSMVSDTSCTFPSGDGIFWKHWIQTKDGQCGSPLVSTRDGFIVGIHSASNFTNTNNYFTSVPKNFMELLTNQEAQQWVSGWRLNADSVLWGGHKVFMVKPEEPFQPVKEATQL [E107H],0.126,–,–,–,–,0.101,0.12,–,0.101,–,–,–,–,–,–,0.18,–
MGESLFKGPRDYNPISSSICHLTNESDGHTTSLYGIGFGPFIITNKHLFRRNNGTLVVQSLHGVFKVKDTTTLQQHLVDGRDMIIIRMPKDFPPFPQKLKFREPQREERICLVTTNFQTKSMSSMVSDTSCTFPSGDGIFWKHWIQTKDGQCGSPLVSTRDGFIVGIHSASNFTNTNNYFTSVPKNFMELLTNQEAQQWVSGWRLNADSVLWGGHKVFMVKEEEPFQPVKEATQL [P222E],0.114,0.0848,0.0712,–,–,–,–,0.0973,–,0.111,0.116,0.0802,0.0904,0.104,–,0.119,0.116
MGESLFKGPRDYNPISSSICHLTNESDGHTNSLYGIGFGPFIITNKHLFRRNNGTLVVQSLHGVFKVKDTTTLQQHLVDGRDMIIIRMPKDFPPFPQKLKFREPQREERICLVTTNFQTKSMSSMVSDTSCTFPSGDGIFWKHWIQTKDGQCGSPLVSTRDGFIVGIHSASNFTNTNNYFTSVPKNFMELLTNQEAQQWVSGWRLNADSVLWGGHKVFMVKPEEPFQPVKEATQL [T31N],0.0637,0.115,0.102,0.0853,0.0939,0.0863,0.0759,0.092,0.105,0.0967,0.0889,–,0.0918,0.0532,0.0645,0.0936,0.0987
MGESLFKGPRDYNPISSSICHLTNESDGHTKSLYGIGFGPFIITNKHLFRRNNGTLVVQSLHGVFKVKDTTTLQQHLVDGRDMIIIRMPKDFPPFPQKLKFREPQREERICLVTTNFQTKSMSSMVSDTSCTFPSGDGIFWKHWIQTKDGQCGSPLVSTRDGFIVGIHSASNFTNTNNYFTSVPKNFMELLTNQEAQQWVSGWRLNADSVLWGGHKVFMVKPEEPFQPVKEATQL [T31K],0.0731,0.0696,0.0516,0.0948,–,0.083,–,0.0663,0.0751,0.0703,–,0.0685,0.0563,–,0.0685,0.0595,0.0688
MGESLFKGPRDYNPISSSICHLTNESDGHTTSLYGIGFGPFIITNKHLFRRNNGTLVVQSLHGVFKVKDTTTLQQHLVDGRDMIIIRMPKDFPPFPQKLKFREPQREERICLVTTNFQTKSMSSMVSDTSCTFPSGDGIFWKHWIQTKDGQCGSPLVSTRDGFIVGIHSASNFTNTNNYFTSVPKNFMELLTNQEAQQWVSGWRLNNDSVLWGGHKVFMVKPEEPFQPVKEATQL [A207N],0.167,0.134,0.163,0.0883,–,0.0854,0.0951,–,–,0.0892,0.0963,0.0942,–,0.11,–,0.083,0.0847
MGESLFKGPRDYNPISSSICHLTNESDGHTTSLYGIGFGPFIITNKHLFRRNNGTLVVQSLHGVFKVKDTTTLQQHLVDGRDMIIIRMPKDFPPFPQKLKFREPQREERICLVTTNFQTKSMSSMVSDTSCTFPSGDGIFWKHWIQTKDGQCGSPLVSTRDGFIVGIHSASNFTNTNNYFTSVPKNFMELLTNQEAQQWVSGWRLNPDSVLWGGHKVFMVKPEEPFQPVKEATQL [A207P],0.104,–,0.0692,–,0.0966,–,0.0801,0.138,–,0.0871,0.0722,0.0854,–,0.11,0.0786,0.0538,–
